The supplement of paper PMC4967469
Lines with a small IC50 respond at low doses; a fit beyond the top or the lowest dose is shown as a bound at that dose. For AUC the same curve is integrated over the 256-fold range of doses and scaled to a fraction; the more sensitive the line, the further below 1. For some assays here: The top dose, if marked as inferred, comes from the curve model; the source does not state it.

Tests used:
Assay in all cases: Viability of human cancer cell lines after 72 h of drug (GDSC screen)
Trametinib = compound: CC(=O)Nc1cccc(-n2c(=O)n(C3CC3)c(=O)c3c(Nc4ccc(I)cc4F)n(C)c(=O)c(C)c32)c1 [Trametinib]; details: top dose 1 µM
Procedure: (§1)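 Human cancer cell lines in 384-well plates, medium with 10% serum, drug for 72 h over a 256-fold dose range (nine 2-fold or five 4-fold steps up to the top dose). Adherent lines were fixed and stained with the nucleic acid dye Syto60, suspension lines read with resazurin; signal relative to control wells, capped at 0 and 100%. One two-parameter sigmoid per drug and line, fitted in a mixed model over all curves with the slope shared within a line.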

PF-4708671 = compound: CCc1cncnc1N1CCN(Cc2nc3ccc(C(F)(F)F)cc3[nH]2)CC1 [PF-4708671]; details: top dose 10 µM; top dose inferred
Procedure: as §1

I-BET-762 = compound: CCNC(=O)C[C@@H]1N=C(c2ccc(Cl)cc2)c2cc(OC)ccc2-n2c(C)nnc21 [I-BET-762]; details: top dose 20 µM; top dose inferred
Procedure: as §1

KIN001-244 = compound: O=C(NC(COc1ccc2[nH]c(=O)[nH]c2c1)c1ccccc1)c1cccn(Cc2ccc(F)c(F)c2)c1=O [KIN001-244]; details: top dose 20 µM; top dose inferred
Procedure: as §1

AV-951 = compound: COc1cc2nccc(Oc3ccc(NC(=O)Nc4cc(C)on4)c(Cl)c3)c2cc1OC [AV-951]; details: top dose 0.128 µM; top dose inferred
Procedure: as §1

HG-6-64-1 = compound: CCN1CCN(Cc2ccc(NC(=O)c3ccc(C)c(/C=C/c4cnc5[nH]ccc5c4OC)c3)cc2C(F)(F)F)CC1 [HG-6-64-1]; details: top dose 5.12 µM; top dose inferred
Procedure: as §1

Cell Line	AUC (Trametinib)	IC50 (Trametinib)	AUC (PF-4708671)	IC50 (PF-4708671)	AUC (I-BET-762)	IC50 (I-BET-762)	AUC (KIN001-244)	IC50 (KIN001-244)	AUC (AV-951)	IC50 (AV-951)	AUC (HG-6-64-1)	IC50 (HG-6-64-1)
BALL-1 (B-cell leukaemia, suspension)	0.997	> 1 µM	0.967	> 10 µM								
BT-549 (breast, adherent)	0.794	0.678 µM	0.916	> 10 µM								
CL-34 (large intestine, adherent)	0.107	< 0.00391 µM	0.957	> 10 µM								
CL-40 (large intestine, adherent)	0.244	0.00666 µM	0.97	> 10 µM								
CML-T1 (chronic myeloid leukaemia, suspension)	0.648	0.149 µM	0.971	> 10 µM								
COR-L32 (small cell lung carcinoma, suspension)	0.828	> 1 µM										
DIFI (large intestine, adherent)	0.408	0.0346 µM	0.981	> 10 µM								
H2810 (mesothelioma, adherent)	0.648	0.168 µM	0.966	> 10 µM								
HCC-366 (non-small cell lung carcinoma, adherent)	0.98	> 1 µM	0.988	> 10 µM								
IGROV-1 (ovary, adherent)	0.59	0.124 µM	0.933	> 10 µM								
JEKO-1 (B-cell lymphoma, suspension)	0.984	> 1 µM	0.954	> 10 µM								
JHOS-4 (ovary, adherent)	0.699	0.294 µM	0.972	> 10 µM								
Jurkat (T-cell leukaemia, suspension)	0.975	> 1 µM	0.917	> 10 µM								
KARPAS-1106P (B-cell lymphoma, suspension)	0.993	> 1 µM	0.992	> 10 µM								
KATOIII (stomach, semi-adherent)	0.795	0.42 µM	0.948	> 10 µM								
KNS-62 (lung squamous cell carcinoma, adherent)	0.233	0.00713 µM	0.903	> 10 µM								
KYSE-410 (oesophagus, adherent)			0.979	> 10 µM	0.939	> 20 µM	0.944	> 20 µM	0.976	> 0.128 µM	0.571	0.509 µM
KYSE-520 (oesophagus, adherent)			0.914	> 10 µM	0.978	> 20 µM	0.896	> 20 µM	0.978	> 0.128 µM	0.653	0.989 µM
LU-65 (large cell lung carcinoma, suspension)			0.927	> 10 µM	0.927	> 20 µM	0.889	> 20 µM	0.983	> 0.128 µM	0.942	> 5.12 µM

Cell Line	AUC (Trametinib)	IC50 (Trametinib)	AUC (PF-4708671)	IC50 (PF-4708671)	AUC (I-BET-762)	IC50 (I-BET-762)	AUC (KIN001-244)	IC50 (KIN001-244)	AUC (AV-951)	IC50 (AV-951)	AUC (HG-6-64-1)	IC50 (HG-6-64-1)
MEL-HO (melanoma, adherent)	0.072	< 0.00391 µM	0.982	> 10 µM								
MG-63 (osteosarcoma, adherent)			0.904	> 10 µM	0.98	> 20 µM	0.98	> 20 µM	0.984	> 0.128 µM	0.622	0.735 µM
MHH-CALL-2 (B-cell leukaemia, suspension)	0.997	> 1 µM	0.959	> 10 µM								
MKN1 (stomach, adherent)			0.979	> 10 µM	0.885	> 20 µM	0.926	> 20 µM	0.983	> 0.128 µM	0.73	1.5 µM
MKN7 (stomach, adherent)	0.843	> 1 µM	0.932	> 10 µM								
MKN28 (stomach, adherent)			0.942	> 10 µM	0.971	> 20 µM	0.876	> 20 µM	0.983	> 0.128 µM	0.724	1.4 µM
MOLM-16 (acute myeloid leukaemia, suspension)	0.816	0.47 µM	0.894	9.44 µM								
MOLT-16 (T-cell lymphoblastic leukaemia, suspension)	0.904	0.85 µM	0.931	> 10 µM								
NCC010 (kidney, adherent)	0.882	> 1 µM	0.985	> 10 µM								
NCI-H146 (small cell lung carcinoma, suspension)	0.993	> 1 µM	0.986	> 10 µM								
NCI-H508 (large intestine, semi-adherent)	0.916	> 1 µM	0.975	> 10 µM								
NCI-H835 (lung carcinoid, suspension)	0.979	> 1 µM	0.987	> 10 µM								
NCI-H929 (myeloma, suspension)	0.191	0.00907 µM	0.964	> 10 µM								
NCI-H1105 (small cell lung carcinoma, suspension)	0.981	> 1 µM										
NCI-H1341 (small cell lung carcinoma, suspension)	0.937	> 1 µM	0.972	> 10 µM								
NCI-H1734 (lung adenocarcinoma, adherent)			0.985	> 10 µM	0.973	> 20 µM	0.946	> 20 µM	0.981	> 0.128 µM	0.714	1.39 µM
NCI-H2030 (lung adenocarcinoma, adherent)			0.909	> 10 µM	0.943	> 20 µM	0.886	> 20 µM	0.977	> 0.128 µM	0.561	0.483 µM
NCI-H2052 (mesothelioma, adherent)			0.965	> 10 µM	0.931	> 20 µM	0.968	> 20 µM	0.972	> 0.128 µM	0.701	1.4 µM
NCI-H2066 (small cell lung carcinoma, adherent)	0.944	> 1 µM	0.98	> 10 µM								

Cell Line	AUC (Trametinib)	IC50 (Trametinib)	AUC (PF-4708671)	IC50 (PF-4708671)	AUC (I-BET-762)	IC50 (I-BET-762)	AUC (KIN001-244)	IC50 (KIN001-244)	AUC (AV-951)	IC50 (AV-951)	AUC (HG-6-64-1)	IC50 (HG-6-64-1)
NCI-N87 (stomach, adherent)	0.888	> 1 µM	0.958	> 10 µM								
PA-1 (ovary, adherent)			0.981	> 10 µM	0.772	6.11 µM	0.786	6.69 µM	0.986	> 0.128 µM	0.606	0.584 µM
PANC-04-03 (pancreas, adherent)			0.906	> 10 µM	0.966	> 20 µM	0.943	> 20 µM	0.966	> 0.128 µM	0.874	> 5.12 µM
PWR-1E (prostate, adherent)	0.888	> 1 µM	0.97	> 10 µM								
RCH-ACV (B-cell leukaemia, suspension)	0.983	> 1 µM	0.93	> 10 µM								
RH-18 (rhabdomyosarcoma, adherent)	0.767	0.425 µM	0.918	> 10 µM								
RPMI-7951 (melanoma, adherent)			0.976	> 10 µM	0.947	> 20 µM	0.913	> 20 µM	0.984	> 0.128 µM	0.812	2.63 µM
SISO (cervix, adherent)			0.984	> 10 µM	0.889	> 20 µM	0.934	> 20 µM	0.976	> 0.128 µM	0.865	4.21 µM
SK-GT-2 (stomach, adherent)	0.67	0.191 µM	0.965	> 10 µM								
SK-MEL-24 (melanoma, adherent)			0.973	> 10 µM	0.884	> 20 µM	0.78	10.1 µM	0.983	> 0.128 µM	0.542	0.427 µM
SK-MEL-31 (melanoma, adherent)	0.889	> 1 µM	0.965	> 10 µM								
SKM-1 (haematopoietic neoplasm, suspension)	0.097	< 0.00391 µM	0.939	> 10 µM								
SUP-B8 (B-cell leukaemia, suspension)	0.972	> 1 µM	0.978	> 10 µM								
SW780 (bladder, adherent)			0.97	> 10 µM	0.985	> 20 µM	0.982	> 20 µM	0.986	> 0.128 µM	0.573	0.517 µM
T-24 (bladder, adherent)			0.969	> 10 µM	0.957	> 20 µM	0.898	> 20 µM	0.986	> 0.128 µM	0.92	> 5.12 µM
TC-YIK (cervix, suspension)	0.808	0.436 µM	0.923	> 10 µM								
VM-CUB-1 (bladder, adherent)			0.985	> 10 µM	0.973	> 20 µM	0.933	> 20 µM	0.989	> 0.128 µM	0.84	3.37 µM
VMRC-LCD (lung adenocarcinoma, adherent)	0.988	> 1 µM	0.958	> 10 µM								
ZR-75-30 (breast, adherent)	0.981	> 1 µM	0.954	> 10 µM								
